# Hit rate of the full screen: of about 130,000 compounds, about 1,200 (0.92%) were called active. Inconclusive means that the source gave no clear call. Such entries were picked first, then a sample of the others. Calls come from the whole dose curve; as a rule, active = well fitted cell-killing curve with a large enough effect; inconclusive = small, poorly fitted or top-dose-only effect; inactive = no such curve, though single readings can be large or run the other way. Potencies of inconclusive entries are doubtful fits and often do not repeat.
# Test: qHTS Screen for Compounds that Selectively Target Cancer Cells with p53 Mutations: Cytotoxicity of p53ts Cells at the Permissive Temperature; note: nearly all actives have a fitted effect of over 55% in size;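 for activity change, negative = cytotoxicity: 0% = DMSO and -100% = full killing by reference compound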
# Conditions: H1299-p53A138V at 32C, ATP luminescence viability, 24 h; activity change, negative = cytotoxicity: at 46.1 µM (top of the series)
# Method in brief: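 Cells: H1299 p53ts (A138V), 600/well, pre-incubated 16–30 h at 37C. Cpd up to 46 uM, 24 h, 32C. Readout: ATPlite luminescence, 20 min RT. Normalization: DMSO vs tamoxifen 100 uM. AC50 by Hill equation.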
# Potency is the fitted concentration of half-maximal effect; tags give direction and shape of the fitted curve.
Structure (SMILES),Potency,"activity change, negative = cytotoxicity"
CC1(C)CC(=O)C2=C(C1)OC1=C(C(=O)CC(C)(C)C1)C2c1ccc(O)cc1O,active: 25.1 µM,–
C#CCn1c(COc2ccccc2C)nc2ccccc21,"inconclusive: 31.6 µM [cytotoxic, single point]",–
COc1ccccc1CNc1cc(-c2ccccc2C)ncn1,"inconclusive: 2 µM [cytotoxic, full curve]",–
COc1ccc(-c2nnc(-c3cccs3)o2)cc1OC,"inconclusive: 12.6 µM [cytotoxic, partial curve]",–
CCOC(=O)c1ccc(NC(=O)Nc2ccc3c(c2)OCCO3)cc1,inactive,–
CC1CCc2nc(NC(=O)COc3ccc(C(C)(C)C)cc3)sc2C1 (stereo not given),"inconclusive: 20 µM [cytotoxic, single point]",–
CN1CCN(C2=C(Cl)C(=O)N(C3CCCCC3)C2=O)CC1,"inconclusive: 12.6 µM [cytotoxic, partial curve]",–
CCCOc1ccc(C(=O)Nc2ccc(N(C)C)cc2)cc1,inactive,–
Cc1ccccc1C(=O)Nc1ccc(Br)cn1,"inconclusive: 10 µM [cytotoxic, single point]",–
N#CC1=C(SCC(=O)c2cc3ccccc3oc2=O)NC(=O)C(C#N)C12CCCC2 (stereo not given),inactive,–
CC/C=C1/OC(=O)c2ccccc21,–,inactive: 4.41% [at 1.84 µM]
CN1CCN(Cc2nc3c(c(=O)n(C)c(=O)n3C)n2CCc2ccccc2)CC1,"inconclusive: 31.6 µM [cytotoxic, single point]",–
Cc1[nH]c2ccccc2c1C(c1ccccc1)c1ccc(Cl)s1 (stereo not given),"inconclusive: 20 µM [cytotoxic, single point]",–
O=C(O)Cc1ccc(NC(=O)c2cccs2)cc1,"inconclusive: 10 µM [cytotoxic, partial curve]",–
O=c1c(-c2ccc(Cl)cc2)nc2cnc(N3CCNCC3)nc2n1CCc1ccccc1,"inconclusive: 31.6 µM [cytotoxic, single point]",–
Cc1ccc2scc(N3CCC(C)CC3)c(=O)c2c1,"inconclusive: 10 µM [cytotoxic, partial curve]",–
CC(=O)n1nc(-c2ccco2)nc1SCc1ccccc1,active: 12.6 µM,–
COc1ccc(N2CCN(C(=O)CSc3c4c(nc5ccc(Cl)cc35)CCCC4)CC2)cc1,"inconclusive: 25.1 µM [cytotoxic, single point]",–
COc1cccc2sc(N3CCN(c4nc5ccccc5s4)CC3)nc12,inactive,–
CC1CCCN(c2ccc(C(=O)NCCc3ccccc3)cn2)C1 (stereo not given),"inconclusive: 12.6 µM [cytotoxic, single point]",–
Cc1ccc(-c2ccc(OCC(=O)N3CCOCC3)cc2)cc1,inactive,–
Cc1ccc(-n2nc3c(=O)n(CC(=O)NC(C)C)nc(C)c3c2C)cc1,inactive,–
Cc1nc2sccn2c(=O)c1CCN1CCC(=C(c2ccccc2)c2ccc(F)cc2)CC1,"inconclusive: 31.6 µM [cytotoxic, single point]",–
CCNC(=O)c1ccc2c(c1)nc1n2CCCCC1,"inconclusive: 10 µM [cytotoxic, partial curve]",–
CCOc1ccccc1NC1(c2ccccc2)C(=O)c2ccccc2C1=O,inactive,–

Structure (SMILES),Potency,"activity change, negative = cytotoxicity"
CCOc1ccc(C(=O)Nc2cc(-c3nc4cc(OC)ccc4o3)ccc2C)cc1[N+](=O)[O-],"inconclusive: 12.6 µM [cytotoxic, partial curve]",–
CC(=O)N1CCC[C@@]2(CCN(Cc3ccc(C#N)cc3)C2)C1,inactive,–
CCCCN(C(=O)NC(=O)Nc1nc2ccc(OC)cc2s1)S(C)(=O)=O,active: 12.6 µM,–
COc1c(Cl)cc(C(=O)N(Cc2ccccc2F)C2CCS(=O)(=O)C2)cc1Cl (stereo not given),inactive,–
Cc1ccc(OCc2nnc(SCc3nc4ccccc4[nH]3)n2Cc2ccco2)cc1,inactive,–
O=C(c1ccncc1)N(Cc1cc2ccccc2[nH]c1=O)C1CCCCC1,"inconclusive: 12.6 µM [cytotoxic, partial curve]",–
O=C1c2ccccc2C(=O)C1c1ccc2ccccc2n1,"inconclusive: 0.398 µM [cytotoxic, partial curve]",–
COc1ccc(S(=O)(=O)N2CCC(N3CCN(Cc4ccc(F)cc4)C(=O)C3=O)CC2)cc1,"inconclusive: 5.62 µM [cytotoxic, single point]",–
NC(N)=NC(=O)c1nc(Cl)c(N2CCCCCC2)nc1N,"inconclusive: 12.6 µM [cytotoxic, partial curve]",–
Cc1ccc(-n2ncc3c(NC4CCCCCC4)ncnc32)cc1,"inconclusive: 12.6 µM [cytotoxic, partial curve]",–
Cn1nnnc1SCCCNCc1ccccc1OCc1ccc(Cl)cc1,"inconclusive: 3.98 µM [cytotoxic, partial curve, poor fit]",–
C=C(C)COc1ccc(-c2[nH]ncc2Oc2cccc(OC)c2)c(O)c1,"inconclusive: 31.6 µM [cytotoxic, single point]",–
O=C(Nc1nc(-c2nc3ccccc3s2)cs1)C1CC1,"inconclusive: 20 µM [cytotoxic, single point]",–
CCC(=O)NCCc1nc2cc(NC(=O)c3cccc(Br)c3)ccc2n1C,active: 12.6 µM,–
COc1cccc2cc(C(=O)Nc3ccc(CC(=O)O)cc3)c(=O)oc12,active: 5.01 µM,–
c1coc(-c2nnc(-c3ccc4c(c3)OCO4)o2)c1,"inconclusive: 12.6 µM [cytotoxic, partial curve]",–
NCCSCCc1ccccc1,–,inactive: -0.939% [at 9.22 µM]
COCCCNC(=O)CCCOc1ccccc1,inactive,–
COC(=O)[C@H](N)Cc1ccc(Cl)cc1,inactive,–
Cc1cccc(Cn2ccn(Cc3ccc(Cl)cc3)c(=O)c2=O)c1,"inconclusive: 20 µM [cytotoxic, single point]",–
Cc1ccc(C2c3c(-c4cc(C)ccc4O)n[nH]c3C(=O)N2Cc2ccco2)cc1 (stereo not given),"inconclusive: 31.6 µM [cytotoxic, single point]",–
CCOC(=O)CNC(=O)CSc1nnc(Cn2c(=O)sc3ccccc32)n1-c1ccccc1C,"inconclusive: 25.1 µM [cytotoxic, single point]",–
Cc1nn2cc(-c3ccc(Cl)cc3)nc2s1,"inconclusive: 15.8 µM [cytotoxic, partial curve]",–
Clc1ccc2c(c1)c1cc(Cl)ccc1n2CN1CCOCC1,"inconclusive: 7.08 µM [cytotoxic, partial curve]",–
Cc1cc(=O)n2[nH]c(-c3ccc(F)cc3)nc2n1,active: 12.6 µM,–

Structure (SMILES),Potency,"activity change, negative = cytotoxicity"
O=C(CCC1CCCC1)N1CCc2c([nH]c3ccccc23)C1c1ccc(Cl)cc1 (stereo not given),inactive,–
O=S(=O)(Nc1cccc(-c2ccc(N3CCCCCC3)nn2)c1)c1ccc(F)cc1,"inconclusive: 12.6 µM [cytotoxic, partial curve]",–
COc1ccc(NC(=O)CCCn2c(=O)c3cccn3c3ccccc32)c(OC)c1,"inconclusive: 10 µM [cytotoxic, partial curve]",–
O=C(NCCc1csc(-c2ccc(C(F)(F)F)cc2)n1)C(=O)Nc1cc(F)ccc1F,inactive,–
O=C(Cn1c(=O)c2ccccc2n(CC(=O)Nc2ccc(Cl)cc2)c1=O)NCCc1ccccc1,"inconclusive: 25.1 µM [cytotoxic, single point]",–
CSc1ncc(C(=O)Nc2ccccc2C(=O)c2ccccc2)c(C(F)(F)F)n1,inactive,–
O=C(CC1Sc2ccc(C(F)(F)F)cc2NC1=O)Nc1ccc(Cl)c(C(F)(F)F)c1 (stereo not given),"inconclusive: 35.5 µM [cytotoxic, single point]",–
O=C(Nc1ccc(-c2cn3ccsc3n2)cc1)C1COc2ccccc2O1 (stereo not given),"inconclusive: 25.1 µM [cytotoxic, single point]",–
CO[C@H]1COC(=O)[C@H](C)NC(=O)[C@@H](C)COC(=O)[C@H]2CCCN2C(=O)C/C=C\[C@H]1C,–,inactive: 3.79% [at 9.22 µM]
CCOC(=O)COc1ccc(-c2nnc(-c3ccccc3)o2)cc1,active: 10 µM,–
O=C(Nc1ccc2c(c1)OCCO2)c1ccco1,active: 15.8 µM,–
CCOC(=O)c1c(OCC)[nH]c2c1cc(O)c1ccccc12,inactive,–
CC(C)CCNC(=O)c1cccc(Nc2nc3ccccc3n3nnnc23)c1,"inconclusive: 10 µM [cytotoxic, partial curve]",–
CCOc1cccc2cc(-c3nc(-c4ccccc4C)no3)c(=O)oc12,inactive,–
COc1cc(OC)c2c(=O)c(-c3ccccc3)coc2c1,"inconclusive: 15.8 µM [cytotoxic, partial curve]",–
c1ccc(-n2ncc3c(NC4CCCC4)ncnc32)cc1,active: 12.6 µM,–
CC(C)C(NC(=O)C1CCCCC1)C(=O)Nc1ccc2c(c1)OCCO2 (stereo not given),"inconclusive: 12.6 µM [cytotoxic, partial curve]",–
O=C(Nc1ccccc1N1CCCC1)c1cc2ccccc2o1,"inconclusive: 25.1 µM [cytotoxic, single point]",–
Cc1ccc(-n2ncc3c(N4CCCCCC4)ncnc32)cc1,active: 3.16 µM,–
O=S(=O)(NC1CC1)c1ccc(S(=O)(=O)N2CCCC(c3nc(-c4cccnc4)no3)C2)cc1 (stereo not given),"inconclusive: 31.6 µM [cytotoxic, single point]",–
c1cncc(Nc2nc(-c3cccnc3)cs2)c1,inactive,–
C/C(=C\C(=O)Nc1nccs1)c1ccccc1,"inconclusive: 20 µM [cytotoxic, partial curve]",–
N#CC1=C(N)Oc2c(ccc3cccnc23)C1c1cccnc1 (stereo not given),"inconclusive: 35.5 µM [cytotoxic, single point]",–
CCc1ccccc1NC(=O)c1nnn(-c2ccc(F)cc2)c1C,"inconclusive: 10 µM [cytotoxic, partial curve]",–
COc1ccccc1CNc1cc(-c2ccccc2C(F)(F)F)ncn1,"inconclusive: 1 µM [cytotoxic, full curve, poor fit]",–
